From PubChem BioAssay AID1508624 (National Center for Advancing Translational Sciences (NCATS), 2021)
Hit rate of the full screen: of about 48,000 compounds, about 120 (0.25%) were called active. Another 4% or so got no clear call; they are omitted. The call rests on the fitted dose curve; in most records, active means well fitted activation curve with a large enough effect; inconclusive means small, poorly fitted or top-dose-only effect, or another doubt; inactive means no such curve, though single readings can be large or run the other way. Some of the results follow.

Test: Primary qHTS for Identification of Small Molecule Activators of Huntingtin-Antisense Promoter Activity; further: nearly all actives have a fitted effect of over 55% in size
Settings: HEK293 HTT-AS promoter firefly luciferase reporter (activity 0% = vehicle and -100% = no light), 24 h; series mostly up to 57.5 µM; activity change, positive = activation: at the top concentration
Procedure, shortened: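 Quantitative HTS used concentration series of up to 57.5 uM final on HEK293 luciferase reporter cells, 24 h at 37 degrees C. Readout was Dual-Glo firefly luminescence.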

Activity change, positive = activation, inactive:
CCN(CC)CCCNC(=O)c1nn(-c2ccc(OC)c(Cl)c2)c(=O)c2c1c1ccccc1n2C -9.31%
Cc1ccc(CNC(=O)Cn2c(=O)n(-c3ccc(C)c(F)c3)c(=O)c3sc4ccccc4c32)cc1 -14.8%
Cc1ccc(S(=O)(=O)N(CC(=O)N2CCc3ccccc3C2)c2ccc(C)c(C)c2)cc1 -19.5%
CCOC(=O)c1ccccc1NC(=O)N1CCCN(S(=O)(=O)c2ccc3c(ccn3CC)c2)CC1 -34.8%
Cc1cccc(-c2nc(CCNC(=O)c3ccccc3Br)cs2)c1 -24%
CCOc1ccc(-c2nc3c(C#N)c[nH]n3c2NC2CCCCC2)cc1 -10.5%
CCc1ccc(CNC(=O)C2CCCN(c3nn4cc(-c5ccc(F)cc5)nc4s3)C2)cc1 (stereo unspecified) -72.5%
CCOC(=O)C1CCN(C(=O)C2CCN(c3nnc(C)c4c(C)n(-c5ccccc5)nc34)CC2)CC1 -7.88%
CC1(C)CO[C@@H](CC(=O)O)CN1 -5.12%
CCCC(=O)Nc1cc(C(=O)NCc2ccc(OC)cc2)ccc1S(=O)(=O)c1ccc(Cl)cc1 1.22%
Cc1nn(CC(=O)NCc2ccccc2Cl)c(=O)c2cccn12 9.46%
Cc1cc(C)n(-c2nnc(Nc3ccc(C(C)C)cc3)c3ccccc23)n1 -17.1%
NCCNC(=O)c1ccc(Cl)cn1 -5.43%
COc1ccc(CNCc2ccc3c(c2)n(C)c(=O)n3C)cc1 -8.78%
COc1cccc(C(=O)NC(=O)Nc2ccc(-n3nc(C(F)(F)F)cc3C(F)(F)F)cc2)c1 -6.03%
CC(=O)c1ccc(NC(=O)C2=CC(c3cccs3)=NS(=O)(=O)N2C)cc1 -9.2%
Cc1nc2c(c(C)nn2-c2ccccc2)c(C)c1CCC(=O)Nc1ccc(F)cc1 -25.6%
COc1cc(Nc2nc(SCc3cccc(Cl)c3)nc3ccccc23)cc(OC)c1 -25.5%
Fc1ccc(Nc2c3c(nc4nncn24)CCC3)cc1 -14.2%
COc1ccc(NC(=O)C2CCCN(S(=O)(=O)c3ccc(Cl)cc3)C2)cc1 (stereo unspecified) -10.3%
Cc1ccc(C)c(N2CCN(c3nccn4nc(-c5ccc(Br)cc5)cc34)CC2)c1 -7.27%
Cc1ccc(Cl)cc1NC(=O)C(NS(=O)(=O)c1cccc2nsnc12)c1ccccc1 (stereo unspecified) -12.5%
O=C(COCc1cc(-c2cccs2)on1)NCc1ccccc1Cl -5.44%
COc1cc(C2c3c(oc4ccccc4c3=O)C(=O)N2c2nc(C)c(C)s2)ccc1O (stereo unspecified) -16.2%
Cc1nc2nc(NC(=O)c3ccc(F)cc3)[nH]n2c(=O)c1Cc1ccccc1 -6.4%
O=C(NCc1ccccc1F)C1CCN(Cc2cc3ccccc3n2Cc2cccc(Cl)c2)CC1 -20.3%
Cc1c(C(=O)OC2CCCCC2)[nH]c2c1C(=O)CC(c1ccccc1Cl)C2 (stereo unspecified) -35.2%
Cn1c(=O)oc2cc(S(=O)(=O)CCC(=O)NCCc3ccccc3)ccc21 10.4%
CC(=O)c1cc(-c2ccc(F)cc2)n(CC(=O)NC(C)c2ccccc2)c1C (stereo unspecified) -7.55%
Cc1ccccc1NC(=O)Nc1ccc2nc(N3CCN(C)CC3)cc(C)c2c1 -11.6%
Cc1cccn2c(=O)c(/C=C(\C#N)c3nc4ccccc4s3)c(Oc3ccc(Br)cc3)nc12 -4.61%
COc1ccccc1Nc1nn2c(=O)c3ccc(C(=O)Nc4ccc(F)cc4)cc3nc2s1 -4.93%
NC(=O)c1cc(S(=O)(=O)NCc2ccc(Br)cc2)cs1 -5.62%
CCOc1ccc2oc(=O)cc(CN3CCN(C(=O)c4cccc(F)c4)CC3)c2c1 -29.1%
CCCN(CCC)CCNC(=O)Cn1ncc2c([nH]c3ccc(C)cc32)c1=O -3.49%
Cc1cccc(C(=O)O)c1O 1.58%
CCc1cccc(-n2c(=O)c3cccnc3n2CC(=O)NCc2ccccc2Cl)c1 -17.1%
CCOC(=O)c1[nH]c(C)c(CCC(=O)NCc2ccc(C)cc2)c1C -6.73%
CCN(c1ccccc1)S(=O)(=O)c1ccc(NC(=O)c2cc(=O)c3ccc(C)c(C)c3o2)cc1 0%
CCC=CC[C@H]1C(=O)CC[C@@H]1CC(=O)OC -4.41%
Cc1ccc2c(CC(=O)Nc3c(C(=O)c4ccc(F)cc4)oc4ccccc34)coc2c1 5.88%
Nc1nc(Cl)nc2c1ncn2[C@H]1C[C@H](O)[C@@H](CO)O1 -21.1%
Cn1cc(C(=O)[C@@H]2CCc3nc[nH]c3C2)c2ccccc21 -9.05%
CCC(=O)OCc1cnc(C)c2oc(=O)c(C(=O)Nc3ccc(CC)cc3)cc12 -4.16%
CC(NC(=O)C1CCN(C(=O)N2CCOc3ccc(Cl)cc32)CC1)c1ccccc1 (stereo unspecified) -12.4%
COc1ccc(-c2nc3c(c(SCc4cc(C)ccc4C)n2)Cc2c(CO)cnc(C)c2O3)cc1 -14.5%
COc1ccc(N2CCN(C(=O)c3nn(C)c4c3CS(=O)(=O)c3ccccc3-4)CC2)cc1 -3.05%
COc1ccc(CCNC(=O)CS(=O)Cc2nc(-c3ccc(C)cc3)oc2C)cc1OC (stereo unspecified) -17.3%
O=C(CCSCc1ccc(Cl)cc1)N1CCN(c2ccccc2F)CC1 -9.66%
Cc1ccc(CNc2nc3c(S(=O)(=O)c4ccc(C)c(C)c4)nnn3c3ccc(Cl)cc23)cc1 19%
O=C(CN1CCN(c2ccc(Cl)cc2)CC1)Nc1ccc(Cl)c(C(F)(F)F)c1 -20.7%
Cc1ccc(CSc2oc(-c3ccco3)nc2S(=O)(=O)c2ccc(Br)cc2)cc1 -6.53%
CC1CCN(C(=O)CSc2nc3c([nH]c4ccccc43)c(=O)n2-c2ccccc2)CC1 -7.47%
Cc1ccc(CNC(=O)CCn2ccc3cc(S(=O)(=O)N4CCCC4)ccc32)cc1 -24.8%
COc1ccccc1NC(=O)CSc1nnc(-c2nonc2NC(C)=O)n1-c1ccccc1 -12.3%
CCc1ccc(NC(=O)Cn2c(=O)n(Cc3nc(C)no3)c(=O)c3cc4c(cc32)OCO4)cc1 -7.6%
CCOc1ccc(-n2c(=O)c3c4c(sc3n(Cc3cc(=O)n5cc(Cl)ccc5n3)c2=O)CCC4)cc1 5.25%
O=C(/C=C\c1ccc2c(c1)OCO2)NC1CC(=O)N(c2ccc(F)cc2)C1 (stereo unspecified) -15.2%
CC1CCN(S(=O)(=O)c2cc(C(=O)NCCc3ccccc3)n(C)c2)CC1 -23.9%
CC(C)(C)c1ccc(C(=O)Nc2cc(-c3ccccc3)nn2-c2ccccc2)cc1 -6.16%
Cc1ccc(C)c(N2CCN(C(=O)c3cc4cc5ccc(C)cc5nc4s3)CC2)c1 3.77%
O=C(O)COc1ccccc1C1Nc2ccccc2-c2nnc(SCc3ccc(Cl)cc3)nc2O1 (stereo unspecified) -18.4%
Cc1ccc(C)c(N2CCN(C(=O)C3CCC(CNS(=O)(=O)c4ccc(Br)s4)CC3)CC2)c1 (stereo unspecified) -31.4%
COc1cccc(NC(=O)Cn2c(=O)n(CCCCC(=O)NCc3ccc4c(c3)OCO4)c(=O)c3ccccc32)c1 -25.2%
CCCS(=O)(=O)N1CC(=O)N(c2cc(C)cc(C)c2)C(C)(C(=O)NC2CCCCCC2)C1 (stereo unspecified) -10.6%
CCOc1ccccc1C(=O)Nc1cc(-c2nc3cccnc3s2)ccc1C -0.355%
CCC(Sc1ncnc2sc3c(c12)CCCC3)C(=O)OCC(C)C (stereo unspecified) -24.9%
COc1ccc(-n2c(SCc3nc(-c4ccc(Cl)cc4)no3)nnc2-c2ccncc2)cc1 -10.3%
CCOC(=O)N1CCC(NC(=O)c2cnn(-c3ccc(C)cc3)c2C2CCN(C(=O)OC(C)(C)C)CC2)CC1 -11.7%
CCOc1ccc(-c2cc(CCCC(=O)NCCc3ccc(OC)c(OC)c3)no2)cc1 -81%
CC(C)(C)C(=O)Nc1ccc2nc(SCCOc3ccccc3Cl)sc2c1 -29.7%
CCc1ccccc1NC(=O)Cn1nnc(C(=O)Nc2ccc(OC)c(OC)c2)c1N -4.98%
Cc1cccc(NC(=O)c2oc3ccc(S(=O)(=O)N(C)C4CCCCC4)cc3c2C)c1C -36.9%
CCCCN(Cc1ccco1)C(=O)c1cc2c(s1)-c1c(C)cccc1OC2 -16.7%
CCOC(=O)c1ccccc1NC(=O)c1nn(-c2ccc(C)cc2)c(=O)n(C)c1=O -9.4%
CCc1ccc(S(=O)(=O)N2CCN(c3ccc(Cl)c(Cl)c3)CC2)cc1 -30.9%
Cc1c(NC(=O)C(F)(F)F)ccc2nc3c(=O)n(C)c(=O)n(C)c3nc12 12.5%
CCc1ccccc1NC(=O)c1cnn(-c2ccc(F)cc2)c1C1CCNCC1 -5.11%
COc1ccc(-c2cc(-c3ccc4c(c3)NC(=O)CO4)nc3c2COc2ccc(C)cc2-3)cc1 6.2%
COc1ccc(-n2ncc(C(=O)NCCCN3CCCCC3)c2C2CCN(C(=O)OC(C)(C)C)CC2)cc1 -0.754%
CCOCCCNC(=O)Cn1cc2c(n1)-c1c(oc(C(=O)N3CCCC3)c1C)CC2 -18.7%
CC(C)c1ccc(NC(=O)c2cnn3c(C(F)F)cc(-c4ccccc4)nc23)cc1 4.21%
Cc1cc(C)c(S(=O)(=O)N2CCC(N3CCN(Cc4ccc(F)cc4)C(=O)C3=O)CC2)c(C)c1 -2.49%
COC(=O)Cn1ccc2cc(S(=O)(=O)N3CCCCC3)ccc21 -15.1%
Cc1ccccc1NC(=O)c1ccc(F)c(S(=O)(=O)N2CCc3ccccc3C2)c1 -30.2%
Cc1ccc(C(C)C)c(OCCCn2c(=O)oc3ccc(C)cc32)c1 -23.6%
Nc1nc(N)c2nc(CNc3ccc(C(=O)NC(CCC(=O)O)C(=O)O)cc3)cnc2n1 (stereo unspecified) -41.2%
COc1cc(O)ccc1-c1nc2cc(C)ccn2c1Nc1ccccc1C -24.4%
O=C(CSc1ncc(CO)n1Cc1ccc(F)cc1)NCc1ccco1 -8.53%
CCc1ccc(S(=O)(=O)Nc2cccc(-c3ccc(OC)nn3)c2)s1 -60.8%
Cc1cccc2c(=O)cc(CSc3ccccc3NC(=O)c3cccc(Br)c3)[nH]c12 -21.1%
O=C(Nc1cccc(F)c1)C1CCN(S(=O)(=O)c2ccc3[nH]c4c(c3c2)CCCCC4)CC1 -41.5%
COc1ccc(NC(=O)CSc2nc3nc(C)cc(C)n3n2)cc1OC 0%
Fc1ccc(C(c2ccc(F)cc2)N2CCN(C/C=C/c3ccccc3)CC2)cc1 -34.5%
CCOc1ccccc1NC(=O)NCc1noc2ccc(C)cc12 -12.7%
Cc1ccc(N2CC(C(=O)NCc3nnnn3-c3ccc(C)c(C)c3)CC2=O)cc1C (stereo unspecified) -2.31%
